Source: the supplement of paper PMC11417369
± gives the standard deviation of the averaged measurements. The list shows a part of the results.

system: PfAP2-I AP2 domain 3 (GST-tagged); assay: gcPBM binding intensity (ln(normalized median fluorescence intensity)); higher = stronger DNA binding
Method in brief: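 GST-fused DNA-binding domains of P. falciparum, expressed in E. coli, were applied at about 25 μg on average for 1 h to an Agilent 4 × 180k array of primer-extended double-stranded 36-bp intergenic genomic probes and negative controls. Binding intensity is the highest Masliner-normalised natural-log median intensity across replicate spots of either probe orientation, measured with Alexa488 anti-GST antibody and a 488 nm scan.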

Sequence | gcPBM binding intensity (ln)
AAAAAAAAAAAAATAGGTACGTAAATATTTCTTTAA [XGTACX_site6423] | 7.68 ± 0.34
TCTTTTAGTTTTATCCACATAATAAAAAGCAAAAAA [GTGCAC_negctrl_site368] | 7.92 ± 0.47
TATTCTTCAATTTAAAGTACAAAAATTACTATACTT [XGTACX_site6599] | 7.58 ± 0.28
AGAACCATATATAAATGTACATGTTAATATGAATAA [XGTACX_site130] | 8.16 ± 0.52
GGACAAAAAAAAAAAATAAAATAAAAATAAATAAAT [XGTACX_negctrl_site106] | 7.33 ± 0.61
AAATATATATGAAGATGTACATATATATATGTAAAT [XGTACX_site4039] | 7.65 ± 0.51
TAACACTTATAAAAAAGTACTGATGAAATAATACTA [XGTACX_site7305] | 7.49 ± 0.33
AAAAATTCCAGACACACACACACATATAAATAAATA [CACACA_site1232] | 7.77 ± 0.59
TGTTAATAAAGGTGTACACAAAATAAAAAAAATTAT [CACACA_site4288] | 8.63 ± 0.45
TTTGTATAGTTGTAGGTGCATATCATTTTTAAATGT [GTGCAC_site9708] | 10.3 ± 0.36
TATAATTATATTTGGAGTACAAATTTTTTTTTTTTT [XGTACX_site7494] | 7.765 ± 0.007
AAAAAAAAAGGTAACGCATGCTTTTAGATTATATTA [TGCATGCA_site398] | 7.3 ± 0.73
AAGTATGCTTGCTACTTATTAAGTGGCAATATAATT [XGTACX_negctrl_site74] | 8.34 ± 0.35
CTTTTTAATAAATATACACACACAAAAAAAAAAAAA [CACACA_site9316] | 8.09 ± 0.71
CACTTTATACGTAATTGTACTTTTTCTTTTTTTTAT [XGTACX_site3175] | 8.02 ± 0.47
ACTTACTAATTAATGGGTACATACACACATATATAC [XGTACX_site1362] | 8.09 ± 0.56
TATTCAAAGAAAGACAGTACGTGTAGCAAACAACCT [XGTACX_site4218] | 7.9 ± 0.49
TAAATAAAGTATAATGCATGCTATTATAATATTAAT [TGCATGCA_site825] | 7.75 ± 0.49
AATAAAAAAATAGAAACACACATTAAAAAAAATAAA [CACACA_site1333] | 7.54 ± 0.47

Sequence | gcPBM binding intensity (ln)
ATGATATATAGACACACACACATATTTATATACATT [CACACA_site6404] | 8.04 ± 0.45
TATTTTTCCATATGCACACACACCGTATATATAATA [CACACA_site1127] | 9.43 ± 0.23
ATAACAAAATAAAACACACACACAAATGTACATATA [CACACA_site2425] | 7.89 ± 0.47
CATATACACCAACACACACACACACCCACAAAAAAA [CACACA_site496] | 8.29 ± 0.15
AAATAAATAATTTAATGTACATATATAATATATATA [XGTACX_site1831] | 8.16 ± 0.49
CTATTTATTATATATACATGCATATATATATTAATA [TGCATGCA_site527] | 8.16 ± 0.52
TATTCTAATTTTTAAACACACAAATATAAATAAGTA [CACACA_site3149] | 7.67 ± 0.49
TAAAAATGTGTATGTACACACTTTATTTTTAATACA [CACACA_site7235] | 7.8 ± 0.13
TATTAAACGAAACACACACACACACCCATATATAAA [CACACA_site759] | 8 ± 0.18
AAAAAGAATGTGAACACACACATTGAATCTAATTTA [CACACA_site6711] | 7.31 ± 0.55
GATAATTATGGACACACACACACACCCACAACTAAA [CACACA_site8824] | 8.3 ± 0.38
ACATATAATATATATATATATATATATATATATAAT [GTGCAC_negctrl_site648] | 8.16 ± 0.33
TATATAAAAAATTCAATACACACCATATATAAATAT [CACACA_site3987] | 7.68 ± 0.4
AGATGATATATTATATATCCTTTTAATAAATGTAAT [CACACA_negctrl_site730] | 7.4 ± 0.4
TAATAGAATATGATGGTGCAGCAGTCTTATTTTTCA | 9.31 ± 0.13
TTTCTTTCTTCACATATATATATATATATATTTATA [TGCATGCA_negctrl_site341] | 8.1 ± 0.69
TACATATAATATATTGCACACGTCAGAATAATATAG [CACACA_site1744] | 10.1 ± 0.7
CCCCCCCACGGACACACACACATACATACCACATAT [CACACA_site5303] | 10.2 ± 0.26
TTTTATAATATTTAAAGTACATTCTAAAAATATAAT [XGTACX_site8033] | 7.49 ± 0.47

Sequence | gcPBM binding intensity (ln)
TTAGCCATTAATTCTCTACACACCTTTATGTTATTT [CACACA_site9212] | 7.89 ± 0.76
TATAATTATTTTTTTCTAAATATTATAAGGTATTCA [GTGCAC_negctrl_site205] | 7.18 ± 0.33
ATTTTTTTTTTTTTTTTTTTTTTTTAGATTAAGAAA [CACACA_negctrl_site1272] | 7.58 ± 0.48
AAATAAAATAAAATAAAATAAAATTCTTTGATACCT [TGCATGCA_negctrl_site604] | 7.3 ± 0.6
AATTTTAAAAATATAACACACATATATAAAATATAT [CACACA_site3610] | 7.71 ± 0.29
AATGAAGAAAAAAAAAGTACATTATTTTTAAAACTT [XGTACX_site563] | 7.78 ± 0.43
TTTTAAATAAAATATTGTACATTAAAATTGTAATAT [XGTACX_site2128] | 7.46 ± 0.42
ATTATAAATATGTATATACACACTTTTAATATTCAT [CACACA_site9367] | 7.91 ± 0.49
AAGCAAACATATTAATGTACACACACCCACACACAA [XGTACX_site5806] | 7.99 ± 0.5
TAAGATAAATGATAAAGTACTTTTTTTTTTTAAATA [XGTACX_site2326] | 7.36 ± 0.16
ATTTATAAAATTAATAGTACATATATTTATATATAT [XGTACX_site4173] | 8.11 ± 0.38
TATTGCACAAAATAATTTTATTATACTTTATGTTAG [TGCATGCA_negctrl_site574] | 8.21 ± 0.25
CAAAAATAAACTATAGTACACACTTATTATTATGAA [CACACA_site2702] | 7.7 ± 0.36
ATTTGGCATAGACACACACACACACGCACGCACATA [CACACA_site6424] | 8.62 ± 0.66
TATGTTCATCATAGCACACATATATAAATTACAACA [CACACA_site3533] | 7.95 ± 0.48
ATTGTAATCATATGAAGTACTAATATATATTTTAAT [XGTACX_site8350] | 7.68 ± 0.54
TTTTTATGTAGAATTTTTTTATTTTTTCAAAATGGA [CACACA_negctrl_site166] | 7.33 ± 0.73
TGTATTACGAAAAAATGTACAGAAAAAGAAACAAAA [XGTACX_site2777] | 8.24 ± 0.6
